Assay results taken from PubChem BioAssay AID360 (National Center for Advancing Translational Sciences (NCATS), 2006).
Hit rate of the full screen: of about 48,000 compounds, about 550 (1.1%) were called active. Roughly 4% stayed inconclusive and do not appear here. Cut-off read from the data, not from the text of the source: active = potency below about 15 µM; inconclusive = mostly about 16 µM to 33 µM; inactive = weaker than that. The list shows a part of the results.

target: Lysosomal acid glucosylceramidase (Homo sapiens) (UniProt P04062); test: Glucocerebrosidase; details: purified enzyme, resorufin glucoside fluorescence (screen aimed at inhibitors), 20 min;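 note: the screen sought inhibitors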
Chain of UniProt P04062 (P04062 whole entry, looked up): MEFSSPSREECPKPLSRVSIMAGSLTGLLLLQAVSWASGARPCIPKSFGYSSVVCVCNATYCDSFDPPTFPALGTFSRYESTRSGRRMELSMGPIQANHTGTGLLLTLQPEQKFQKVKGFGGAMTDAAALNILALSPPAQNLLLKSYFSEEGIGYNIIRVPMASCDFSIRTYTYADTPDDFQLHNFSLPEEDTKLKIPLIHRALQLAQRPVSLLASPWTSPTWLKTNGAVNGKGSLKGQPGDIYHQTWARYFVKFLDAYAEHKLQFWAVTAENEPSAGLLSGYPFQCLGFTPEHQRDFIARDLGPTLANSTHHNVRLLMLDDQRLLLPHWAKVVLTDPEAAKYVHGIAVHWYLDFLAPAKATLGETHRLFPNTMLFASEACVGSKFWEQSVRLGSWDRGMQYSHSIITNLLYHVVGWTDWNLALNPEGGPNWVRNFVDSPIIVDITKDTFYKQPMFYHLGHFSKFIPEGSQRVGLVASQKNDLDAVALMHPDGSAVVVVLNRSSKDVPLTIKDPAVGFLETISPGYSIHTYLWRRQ
Method in brief: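 Normal human glucocerebrosidase (0.2 nM final) was assayed with resorufin β-D-glucopyranoside (30 uM final) in 50mM citric acid/KH2PO4, 10mM sodium taurocholate, 0.01% tween-20, pH 5.9. Compounds were titrated; fluorescence (Ex 548, Em 600) read after 20 min at RT.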
Potency is the fitted concentration of half-maximal effect.

Potency, inactive:
COC(=O)c1c(C(C)=O)cnc2ccc(Br)cc12 > 76.9 µM
COc1ccc2nc(SCC(=O)Nc3ccccc3C#N)[nH]c2c1 > 76.9 µM
CS(=O)(=O)N(CC(=O)NCCSCc1c(F)cccc1Cl)c1ccc2c(c1)OCO2 > 76.9 µM
O=C(CN(CCc1ccccc1)C(=O)CN1C(=O)COc2ccccc21)NCc1ccco1 > 76.9 µM
CC12CN(C(=O)c3ccco3)CC(c3ccccc3)(CN(C(=O)c3ccco3)C1)C2=O > 76.9 µM
COc1cccc(-c2csc(N3CCN(S(=O)(=O)c4ccc(F)cc4)CC3)n2)c1 > 76.9 µM
COC(=O)c1ccc(CSc2nnc(CNC(=O)COc3ccc(Cl)cc3)o2)o1 > 76.9 µM
CS(=O)(=O)N(Cc1cc2ccccc2[nH]c1=O)C1CCCCC1 > 76.9 µM
Clc1ccc(CSc2ncccn2)cc1 > 76.9 µM
CC(C)COC(=O)n1c(SCC(=O)N(C)C)nc2ccccc21 > 76.9 µM
Cc1ccc2cccc(S(=O)(=O)N3CCN(c4ccccc4F)CC3)c2n1 > 76.9 µM
CCOC(=O)N1CCN(C(=O)C2CCN(S(=O)(=O)CC)CC2)CC1 > 76.9 µM
COc1ccc(CN(CC(=O)NCC2CCCO2)C(=O)CCC(=O)Nc2cc(C)on2)cc1 (stereo not drawn) > 76.9 µM
c1ccc(-n2c(SCC3CCCCO3)nnc2-c2cnccn2)cc1 (stereo not drawn) > 76.9 µM
Cc1cc(Cl)ccc1OC(C)C(=O)Nc1ccccc1N1CCOCC1 (stereo not drawn) > 76.9 µM
Cn1nccc1/C=C(/C#N)S(=O)(=O)c1ccccc1 > 76.9 µM
Oc1ccc2[nH]ccc2c1 > 76.9 µM
CCC(=O)Nc1cc(C)c(NC(=O)C23CC4CC(CC(C4)C2)C3)cn1 > 76.9 µM
CCOC(=O)c1sc(N2C(=O)C(O)=C(C(=O)c3ccco3)C2c2ccccc2)nc1C (stereo not drawn) > 76.9 µM
O=C(O)COc1ccc(-c2nnn(Cc3ccccc3F)n2)cc1 > 76.9 µM
O=C(O)c1cccc(CSc2ncccn2)c1 > 76.9 µM
Cc1nc2ccccc2nc1N1CCC(C)CC1 > 76.9 µM
Cn1c(=O)oc2cc(S(=O)(=O)NCCC(=O)NCCc3ccccc3)ccc21 > 76.9 µM
NC(=O)c1ccccc1NC(=O)CS(=O)(=O)Cc1ccccc1 > 76.9 µM
c1ccc(-n2ncc3c2ncn2nnnc32)cc1 > 76.9 µM
Cc1cc(-c2nnc(-c3ccccc3)c(-c3ccccc3)n2)c(C)o1 > 76.9 µM
Cc1nc2cc(NC(=O)NCc3ccco3)ccc2o1 > 76.9 µM
CC1(C)CC(=O)C=C(Nc2ccc(F)cc2)C1 > 76.9 µM
O=C(Cn1c(NCCO)nc2ccccc21)c1ccc(Cl)cc1
O=C(NCc1ccccn1)c1ccc(NC(=O)c2ccco2)cc1 > 76.9 µM
O=C1C2C3C=CC(C3)C2C(=O)N1c1ccncc1 (stereo not drawn) > 76.9 µM
CCOC(=O)c1cn(CC(=O)Nc2ccc3c(c2)OCCO3)nn1 > 76.9 µM
Cc1cc(C)c2cc(CN(CCO)C(=O)Nc3ccc(F)cc3)c(=O)[nH]c2c1 > 76.9 µM
CCC(CC)C(=O)Nc1cccc(C(=O)Nc2ccc3c(c2)OCO3)c1
CCN1C(=O)C(C)S/C1=N\S(=O)(=O)c1ccc(Cl)s1 (stereo not drawn) > 76.9 µM
COc1cccc(-c2cc(C(=O)N3CCCc4ccccc43)no2)c1 > 76.9 µM
COc1ccc(C(=O)CSc2nnc(Cn3cnc4ccccc43)o2)cc1 > 76.9 µM
O=C(CCn1nc(-c2ccccc2)c2ccccc2c1=O)N1CCN(c2ccccc2)CC1 > 76.9 µM
Cc1ccc(S(=O)(=O)N2CC(O)CC2C(=O)Nc2ccc3c(c2)CCC3)cc1 (stereo not drawn) > 76.9 µM
COc1ccc(C)cc1NC(=O)CN1CCN(S(=O)(=O)c2ccc(F)cc2)CC1 > 76.9 µM
C=CCOc1c(Cl)cc(C2NC(=O)NC(C)=C2C(=O)OC)cc1Cl (stereo not drawn) > 76.9 µM
CCSc1nc(=S)n(CC)c(C)c1C(C)=O > 76.9 µM
CCOC(=O)COc1cc2c3c(c(=O)oc2cc1C)CCCC3
CN1CCC(OC(=O)COc2ccc(C(C)(C)C)cc2)CC1 > 76.9 µM
COc1ccc(-c2nnc(NC(=O)c3cc(C)on3)s2)cc1 > 76.9 µM
Cc1c(NC(=O)CC(=O)Nc2c(C)n(C)n(-c3ccccc3)c2=O)c(=O)n(-c2ccccc2)n1C > 76.9 µM
COc1ccc(NC(=O)CCCCn2c(=O)[nH]c3ccccc3c2=O)cc1 > 76.9 µM
COc1ccc(CN2CCN(C(=O)C3CC(=O)N(C4CCCCCC4)C3)CC2)c(OC)c1OC (stereo not drawn) > 76.9 µM
COc1cccc(-c2cc(C(F)(F)F)nc(N3CCCCC3)n2)c1 > 76.9 µM
CCCC(=O)Nc1cc(C)c(NC(=O)C23CC4CC(CC(C4)C2)C3)cn1 > 76.9 µM
CCC1Oc2ccccc2N(CC(=O)NCCC2=CCCCC2)C1=O (stereo not drawn) > 76.9 µM
CC1(C)CC(=O)CC(C)(C)N1OC(=O)c1ccccn1 > 76.9 µM
O=C(c1ccco1)N1CCN(CC(=O)N(C2CCCCC2)C2CCS(=O)(=O)C2)CC1 (stereo not drawn) > 76.9 µM
COc1ccccc1-c1nnc(SCC(=O)Nc2ccccc2)o1 > 76.9 µM
CCCCn1nnnc1NCc1cccs1 > 76.9 µM
COc1cc(C2N=C(c3ccccc3)NO2)cc(Br)c1O (stereo not drawn) > 76.9 µM
Cc1nn(-c2ccc(F)cc2)c(C)c1NS(=O)(=O)c1ccc(Cl)cc1 > 76.9 µM
CCOc1ccccc1NC(=O)CSc1nnc(CNC(=O)COc2ccc(Cl)cc2)o1 > 76.9 µM
